Laboratory results published in the supplement of paper PMC8285479.
Where a name gives a salt, the structure may show the parent alone. ± gives the standard deviation of the averaged measurements. In all, about 1,900 compounds were measured (“normalised cell viability (NPI; 0 = phenylarsine oxide control, 1 = DMSO control)”: median about 1, lowest 2% from about 0.039 on). This is one part of the list.

Tested on: NCI-H1944
Assay: normalised cell viability (NPI; 0 = phenylarsine oxide control, 1 = DMSO control) (fraction of DMSO control); NCI-H1944 is a non-small cell lung cancer line; higher = more viable cells (less compound toxicity)
Settings: 6 days
[1] = glucocorticoid arm: hydrocortisone 2.75 uM co-treatment, compound 1 µM
[2] = glucocorticoid arm: hydrocortisone 2.75 uM co-treatment, compound 5 µM
[3] = glucocorticoid arm: hydrocortisone 2.75 uM pre-treated 2 days and continued, compound 1 µM
[4] = glucocorticoid arm: hydrocortisone 2.75 uM pre-treated 2 days and continued, compound 5 µM
[5] = glucocorticoid arm: vehicle, compound 1 µM
[6] = glucocorticoid arm: vehicle, compound 5 µM
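Further: CTB read-out in 384-well plates, mean of triplicate wells, normalised per plate against 1 µM phenylarsine oxide and 0.1% DMSO, compounds added 24 h after seeding.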

SMILES | normalised cell viability [1] | normalised cell viability [2] | normalised cell viability [3] | normalised cell viability [4] | normalised cell viability [5] | normalised cell viability [6]
O=C1CCC(N2C(=O)c3ccccc3C2=O)C(=O)N1 (configuration not stated) | 1.02 ± 0.015 | 1.03 ± 0.021 | 1.03 | 1.04 ± 0.017 | 1.01 ± 0.012 | 1.02
O=C1CCC(N2C(=O)c3ccccc3C2=O)C(=O)N1 (configuration not stated) [Thalidomide] | 0.982 ± 0.015 | 0.988 ± 0.01 | 0.983 ± 0.03 | 0.974 ± 0.017 | 0.9907 ± 0.004 | 0.9753 ± 0.005
CCCCCCCCCCCCCCCCCC(=O)NCC(COP(=O)([O-])OCC[N+](C)(C)C)OCC (racemic) [rac-2-Ethoxy-3-octadecanamido-1-propylphosphocholine] | 1.017 ± 0.0058 | 1.04 ± 0.011 | 1.01 ± 0.011 | 1.04 ± 0.021 | 0.9997 ± 0.0091 | 1.002 ± 0.0067
CC(=O)OCC1=C(C(=O)O)N2C(=O)[C@@H](NC(=O)Cc3cccs3)[C@H]2SC1 [Cephalothin sodium salt] | 1.01 ± 0.015 | 1.023 ± 0.0058 | 1.003 ± 0.0058 | 1.02 ± 0.035 | 1.017 ± 0.0058 | 1.013 ± 0.0058
CN(CCOc1ccc(C[C@H](Nc2ccccc2C(=O)c2ccccc2)C(=O)O)cc1)c1ccccn1 | 1.01 ± 0.014 | 1.006 ± 0.0069 | 1.01 ± 0.016 | 1.01 ± 0.01 | 1.003 ± 0.0058 | 1.01
CC(NC(=O)Cc1cc(F)cc(F)c1)C(=O)NC1C(=O)N(C)c2ccccc2-c2ccccc21 (configuration not stated) | 0.977 ± 0.0072 | 0.998 ± 0.0035 | 0.983 ± 0.015 | 0.999 ± 0.019 | 0.9847 ± 0.0057 | 0.9813 ± 0.007
CC(N)C(=O)OC(C)(C)Cc1ccc(Cl)cc1 (configuration not stated) [Alaproclate hydrochloride] | 0.99 ± 0.031 | 0.981 ± 0.016 | 0.871 ± 0.23 | 1.004 ± 0.0092 | 1.01 | 1.003 ± 0.0061
CCOc1cc(N)c(Cl)cc1C(=O)NCC1CN(Cc2ccc(F)cc2)CCO1 (configuration not stated) [Mosapride Citrate] | 1.01 ± 0.014 | 1.04 ± 0.021 | 0.992 ± 0.026 | 1.02 ± 0.024 | 1.007 ± 0.0058 | 1.01
CNCCCN1c2ccccc2CCc2ccccc21 [Desipramine hydrochloride] | 0.996 ± 0.0035 | 0.944 ± 0.018 | 0.996 ± 0.014 | 0.9767 ± 0.0075 | 0.9963 ± 0.004 | 0.9937 ± 0.0021
C[C@@]1(c2cc(-c3cncnc3)c(F)cc2F)CCSC(N)=N1 | 0.99 ± 0.012 | 1.017 ± 0.0058 | 1 | 1.01 ± 0.019 | 0.995 ± 0.0046 | 1.003 ± 0.0058
COc1ccc(CCNC[C@@H](O)c2ccc(O)cc2)cc1OC [R(-)-Denopamine] | 1.01 ± 0.01 | 1.017 ± 0.0058 | 1.02 ± 0.017 | 1.013 ± 0.0058 | 1.01 | 1.01 ± 0.014
CCc1cnn2c(NCc3ccc[n+]([O-])c3)cc(N3CCCC[C@H]3CCO)nc12 | 0.0547 ± 0.0038 | 0.0409 ± 0.0039 | 0.144 ± 0.004 | 0.153 ± 0.0068 | 0.0139 ± 0.0022 | 0.00878 ± 0.0013
